Laboratory results: PubChem BioAssay AID504706 (National Center for Advancing Translational Sciences (NCATS), 2011)
About 200 (0.062%) of roughly 320,000 compounds were called active. Inconclusive results, whose numbers are uncertain, are shown with a selection of clear calls. Calls come from the whole dose curve; as a rule, active = well fitted activation curve with a large enough effect; inconclusive = small, poorly fitted or top-dose-only effect; inactive = no such curve, though single readings can be large or run the other way. Potencies of inconclusive entries are left out as doubtful fits.
Potency is the fitted concentration of half-maximal effect; tags give direction and shape of the fitted curve.

Test: qHTS assay for re-activators of p53 using a Luc reporter; note: nearly all actives have a fitted effect of over 45% in size
Conditions: H1299 p53-A138V BP100-luciferase reporter, luminescence, 24 h; series mostly up to 92.2 µM
Excerpt: The p53 tumor suppressor plays a key role in suppression of tumorigenesis and in human carcinogenesis. It is frequently found inactivated in human cancers, mainly by point mutation. These point mutations are found in a wide variety of human cancers and a majority of them affect the DNA binding domain of the protein. The point mutations either alter native p53 conformation or abolish DNA contact. Additionally, cancer cells with p53 mutations are more resistant to chemo-radiation therapies. In order to find activators to reactivate this important protein, a cell-based screen for p53-dependent luciferase-reporter expression was developed. A p53-null H1299 lung cancer cell line was stably co-transfected with a temperature sensitive p53 mutant, p53-A138V, and a p53-responsive BP100-luciferase reporter. This cell model has previously been characterized in a gene chip profiling experiment for p53 activation. By lowering the culture temperature from 37 deg C (mutant p53 conformation) to 32 deg C (w.t. p53 conformation), a 30-60 fold increase in activation of luciferase activity is observed. At assay temperate, 37 deg C, basal reporter expression is very low and after the addition of detection reagent, a luminescent read-out is carried out. NIH Chemical Genomics Center [NCGC] NIH Molecular Libraries Probe Production Centers Network [MLPCN] MLPCN Grant: DA031088-01A1 Assay Provider (PI): Yi Sung, University of Michigan at Ann Arbor
5ul of 1000 cells per well are dispensed in all wells except column 4, into white solid-bottom TC-treated Kalypsys plates. The cells are kept in Opti-MEM and supplemented with 10% FBS and dispensed using a Multidrop (Thermo). Then using the Kalypsys pin-tool, 23nl of compounds are pinned. The compounds are starting concentration at 10mM, with 1:5 dilution, 4 points, and the control compound nocodazole is pinned in column 1 at 25mM, 1:3 dilution, in duplicate, 25mM nocodazole is pinned in column 2. Please note, all concentrations are working concentrations. 5ul of 1pM purified luciferase enzyme is dispensed using the Kalypsys dispenser in column 4. Plates are incubated for 24 hrs at 37 deg C, 5% CO2, and 95% humidity. Then 4ul of the detection reagent Amplite (ABD Bioquest) is added using the Kalypsys dispenser. Plates are incubated for 10 min at ambient room temperature and are then read on the ViewLux (Perkin Elmer) using a clear filter for a luminescent read-out.
For `Cc1ccc(-n2c(C)nc3oc4ccccc4c(=O)c3c2=O)cc1`, the Potency was inconclusive [activator, partial curve, poor fit]. For `Cc1cccc(C(=O)Nc2cccc3cccnc23)c1`, the Potency was “inactive”. In the case of `N#Cc1c(/N=C/c2cccs2)sc2c1CCC2`, the Potency is reported as “inactive”. With `O=C(/C=C/c1ccccc1)Nc1cccnc1Oc1ccccc1F` the Potency was “inactive”. For `O=C(O)/C=C/C(=O)Nc1cccnc1`, the Potency was “inactive”. With `COc1ccc(S(=O)(=O)Nc2cccc(-c3ccc4nncn4n3)c2)cc1F` the Potency was “inactive”. In the case of `O=C(c1cc(-c2ccccc2)on1)N1CCN(C(=O)c2ccco2)CC1`, the Potency is reported as “inactive”. With `Cc1ccccc1NC(=O)CSc1nc2c(c(=O)n(C)c(=O)n2C)n1C` the Potency was “inactive”. In the case of `CCSc1nnc(NC(=O)NC2CCCCC2)s1`, the Potency is reported as inconclusive [activator, partial curve, poor fit]. With `O=C(Nc1ccc2ccccc2c1)c1ccccc1O` the Potency was “inactive”. For `Cc1cc(NC(=O)CCC2CCCC2)no1`, the Potency was inconclusive [activator, partial curve, poor fit]. For `COc1ccccc1C1CN(c2ccccc2)N=C1c1cccs1` (stereo not given), the Potency was “inactive”. In the case of `CCc1ccc(-c2nn[nH]n2)cc1`, the Potency is reported as inconclusive [activator, single point]. With `CCCOc1ccc(Cc2nn3c(=O)/c(=C/c4ccco4)sc3nc2=O)cc1` the Potency was “inactive”. In the case of `COc1ccc(NC(=O)CN2CCC(NC(=O)C3CCCCC3)CC2)cc1`, the Potency is reported as inconclusive [activator, partial curve, poor fit]. With `CC1(C)CC(=O)C([N+](=O)[O-])=C(NCCCC(=O)O)C1` the Potency was “inactive”. With `CC(=O)c1cccc(NC(=S)NC(=O)c2ccc(C)cc2)c1` the Potency was inconclusive [activator, partial curve, poor fit]. In the case of `O=C(c1cc(COc2ccc(F)cc2F)on1)N1CCOCC1`, the Potency is reported as inconclusive [activator, partial curve, poor fit]. With `CCCSc1nnc(NC(=O)Nc2ccccc2)s1` the Potency was inconclusive [activator, partial curve, poor fit]. For `O=C(/C=C/c1ccccc1Cl)N1CCOCC1`, the Potency was “inactive”. In the case of `Clc1ccc(Nc2ncnc3c2cnn3-c2ccccc2)cc1`, the Potency is reported as inconclusive [activator, single point]. With `CCn1c(SCC(=O)c2cc(C)n(CC3CCCO3)c2C)nc2ccccc21` (stereo not given) the Potency was inconclusive [activator, partial curve, poor fit]. For `O=C(Nc1nc2c(s1)CCCC2)c1cccs1`, the Potency was inconclusive [activator, partial curve, poor fit]. With `O=c1[nH]nc(CNc2ccc(O)cc2)c2ccccc12` the Potency was inconclusive [activator, single point]. With `COc1ccccc1C(NC(=O)CC(C)C)c1c(O)ccc2ccccc12` (stereo not given) the Potency was inconclusive [activator, single point]. In the case of `CCCCn1c(-c2ccc([N+](=O)[O-])cc2)n[nH]c1=S`, the Potency is reported as “inactive”. With `NS(=O)(=O)c1ccc2c(c1)C(=NO)c1cc(S(N)(=O)=O)ccc1-2` the Potency was inconclusive [activator, single point]. In the case of `S=C(NCc1ccco1)Nc1cccc(Cl)c1Cl`, the Potency is reported as “inactive”. In the case of `Cc1ccc(O)c(C2=NOC(O)(C(F)(F)C(F)F)C2)c1` (stereo not given), the Potency is reported as inconclusive [activator, single point]. With `CCOc1cccc(/C=N/NC(=O)c2cc(C3CC3)[nH]n2)c1O` the Potency was inconclusive [activator, partial curve, poor fit]. For `Clc1ccc(-c2noc(COc3ccccc3)n2)cc1`, the Potency was inconclusive [activator, partial curve, poor fit]. For `COc1ccc(-c2nnc(SCc3ccccc3F)o2)cc1`, the Potency was inconclusive [activator, partial curve, poor fit]. In the case of `O=c1oc2ccccc2cc1-c1ccc(O)cc1`, the Potency is reported as inconclusive [activator, partial curve, poor fit]. With `CCN(CC)c1ccc(/C=N/NC(=O)c2cnccn2)cc1` the Potency was inconclusive [activator, partial curve, poor fit]. For `O=C(/C=C/c1cccnc1)c1cc(F)ccc1O`, the Potency was “inactive”. With `C/C(=N\OCc1nc2ccccc2c(=O)n1/N=C/c1cc([N+](=O)[O-])ccc1O)c1ccccc1` the Potency was inconclusive [activator, single point]. For `Cc1nc(C)c(-c2csc(NCCc3ccccc3)n2)s1`, the Potency was inconclusive [activator, single point]. With `CCOC(=O)N1CCN(C(=O)CNC(=O)c2ccccc2F)CC1` the Potency was inconclusive [activator, partial curve, poor fit]. For `O=C(O)c1ccc(COc2ccccc2Cl)cc1`, the Potency was “inactive”. With `CCC1NC(=S)NC(C)=C1C(=O)c1ccccc1` (stereo not given) the Potency was “inactive”. With `COc1ccc(OCc2cc(C(=O)N(Cc3nccn3C)C(C)C)no2)c2ccccc12` the Potency was inconclusive [activator, partial curve, poor fit]. In the case of `Cc1cc(OCC(=O)Nc2ccc(S(=O)(=O)N3CCN(C)CC3)cc2)ccc1Br`, the Potency is reported as inconclusive [activator, full curve, poor fit]. With `COCc1cc(C)nc(SCc2ccc([N+](=O)[O-])cc2)c1C#N` the Potency was inconclusive [activator, single point]. For `CCc1cc2ccccc2nc1SCC(=O)NC1CCCC1`, the Potency was “inactive”. With `Cc1ccc(C)n1-c1cccc(C(=O)Nc2ccccc2)c1` the Potency was inconclusive [activator, full curve, poor fit]. In the case of `Cc1ccc(NC(=O)CSc2n[nH]c(-c3cccnc3)n2)cc1Cl`, the Potency is reported as “inactive”. For `CCOC(=O)c1c(N)sn(-c2ccccc2)c1=S`, the Potency was “inactive”. For `COc1ccc(N2CC(O)=C(c3nc(-c4ccc(F)cc4)cs3)C2=N)cc1Cl`, the Potency was “inactive”. In the case of `N=c1c2c(n(Cc3cccc(Cl)c3)c3c1CCC3)CCCC2`, the Potency is reported as “inactive”. With `CCCCCCCCS(=O)CCC(=O)O` (stereo not given) the Potency was “inactive”.
